Laboratory results from article PMC4336329 (PLoS ONE, 2015).
The campaign covered roughly 310,000 compounds. About 2,200 (0.71%) showed an effect of 50% or more. Effects have a minus sign here. This is one part of the list.

Molecular target: human ether-à-go-go-related gene (hERG) potassium channel (human, UniProt Q12809)
Test: primary screen, population patch clamp on CHO cells stably expressing hERG

Sequence of human ether-à-go-go-related gene (hERG) potassium channel (Q12809 whole entry, looked up): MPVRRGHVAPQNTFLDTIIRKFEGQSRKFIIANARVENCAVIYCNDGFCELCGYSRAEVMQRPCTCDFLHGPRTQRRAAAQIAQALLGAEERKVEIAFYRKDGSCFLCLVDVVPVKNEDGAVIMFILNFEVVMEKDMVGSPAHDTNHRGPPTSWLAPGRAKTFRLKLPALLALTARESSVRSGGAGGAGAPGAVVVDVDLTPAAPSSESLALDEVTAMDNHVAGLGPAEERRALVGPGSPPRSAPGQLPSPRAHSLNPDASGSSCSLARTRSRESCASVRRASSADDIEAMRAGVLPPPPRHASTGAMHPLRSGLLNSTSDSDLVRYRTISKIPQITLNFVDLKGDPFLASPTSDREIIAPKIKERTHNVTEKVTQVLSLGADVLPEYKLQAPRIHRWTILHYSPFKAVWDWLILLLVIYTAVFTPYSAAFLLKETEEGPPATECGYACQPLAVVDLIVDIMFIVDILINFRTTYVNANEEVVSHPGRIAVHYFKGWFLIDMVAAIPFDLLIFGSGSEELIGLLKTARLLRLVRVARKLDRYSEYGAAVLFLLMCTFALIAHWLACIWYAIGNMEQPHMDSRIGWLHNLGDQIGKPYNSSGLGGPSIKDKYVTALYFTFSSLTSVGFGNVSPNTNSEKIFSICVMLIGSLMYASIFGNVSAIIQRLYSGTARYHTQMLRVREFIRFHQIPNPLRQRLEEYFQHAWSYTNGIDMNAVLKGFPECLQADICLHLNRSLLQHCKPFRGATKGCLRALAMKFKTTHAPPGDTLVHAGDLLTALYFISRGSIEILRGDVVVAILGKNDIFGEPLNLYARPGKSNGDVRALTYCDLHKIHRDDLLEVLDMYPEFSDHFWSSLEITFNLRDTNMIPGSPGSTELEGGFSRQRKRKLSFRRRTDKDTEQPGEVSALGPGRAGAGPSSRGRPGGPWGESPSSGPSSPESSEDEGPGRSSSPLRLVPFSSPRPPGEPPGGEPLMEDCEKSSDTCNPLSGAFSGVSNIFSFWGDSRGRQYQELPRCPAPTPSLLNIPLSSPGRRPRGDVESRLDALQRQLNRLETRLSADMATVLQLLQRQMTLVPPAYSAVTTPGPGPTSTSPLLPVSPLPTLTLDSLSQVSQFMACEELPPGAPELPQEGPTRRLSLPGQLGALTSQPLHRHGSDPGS

SMILES	hERG current change (%, negative = inhibition) at 1uM
COC(=O)c1cc(=O)n(-c2ccccc2)c(=Nc2ccccc2)s1	12.8%
COc1ccc(N2CCCn3c2nc2c3c(=O)n(Cc3ccc(C)cc3)c(=O)n2C)c(OC)c1	3.54%
BrCCc1ccccc1	9.3%
CCC(=O)Nc1cc(C(=O)OCc2ccc(C(=O)Oc3ccccc3)cc2)ccc1C	11.3%
Cc1cc(C)c(C)c(OCCOCCN2CCOCC2)c1	0.238%
Cc1ccc(NC(=O)COC(=O)COc2ccc(Cl)cc2C)c([N+](=O)[O-])c1	5.43%
CCS(=O)(=O)N1CCC(C(=O)Oc2ccc(C(=O)OC)cc2)CC1	6.64%
O=C(/C(C=Nc1ccc(Br)cc1)=C(/O)c1ccco1)C(F)(F)F	-0.634%
Cc1ccc(C(=O)N2CCN(c3ccccc3)CC2)cc1S(=O)(=O)N1CCCC1	3.98%
CCOc1cc(CNCc2ccncc2)cc(Br)c1OCc1ccccc1F.Cl	10.1%
CC(=O)c1cc(C#N)c(SCC(=O)OC(C)C)nc1C	5.57%
COc1ccccc1CC(=O)N1CCN(c2cccc(C(F)(F)F)c2)CC1	5.11%
COC(=O)c1ccc(C(=O)Nc2ccc3nc(-c4ccncc4)[nH]c3c2)cc1	6.68%
COc1ccc([N+](=O)[O-])cc1N1C(=O)c2cccc3cccc(c23)C1=O	5.8%
O=[N+]([O-])c1ccc(-c2nnc3n2CCCCC3)cc1	6.45%
O=[N+]([O-])c1cc([N+](=O)[O-])c(Oc2cncc(Cl)c2)cc1NC1CCCCCCC1	12%
CC(C)C[C@H](NC(=O)c1nc[nH]c1C(=O)NCc1ccccc1)C(=O)OC(C)(C)C	14.1%
CN1C(=O)CC[C@H]1c1cccnc1	13.7%
O=C(Oc1ccc(Cl)cc1)c1ccc2nccnc2c1	13.1%
CCCCCCCN1CCN=C1N(C)C	-38.2%
COc1ccc(C2CC2/C(C)=N/OC(=O)C2CC2)cc1 (stereo not shown)	11.1%
N#CCOc1nc(N2CCCC2)nc(N2CCCC2)n1	7.46%

SMILES	hERG current change (%, negative = inhibition) at 1uM
CCOCCCN(C)C1CCN(C(=O)c2oc3ccccc3c2NC(=O)c2ccc(F)cc2)CC1	-85.6%
CCn1c(CSc2nc3ccccc3s2)nnc1SCC(=O)c1ccc(O)cc1O	10.4%
Cn1cnnc1SCC(=O)N(Cc1ccc2c(c1)OCO2)C1(C(=O)NC2CCCCC2)CCCC1	7.11%
Cc1ccc(SCCn2nc(C(=O)O)c3ccccc3c2=O)cc1	8.49%
COc1ccc(OCC(=O)N/N=C2\CCCCc3ccccc32)cc1	13%
Cc1cnc(C(=O)OCC(=O)Nc2ccc(Cl)cc2)cn1	4.91%
O=C(Nc1ncn[nH]1)c1ccc(S(=O)(=O)N2CCOCC2)cc1	4.21%
Cc1nc(-c2ccc(NC(=O)c3ccccc3Br)cc2)cs1	11.8%
COc1ccc(NC(=O)c2oc3ccccc3c2NC(=O)c2ccco2)cc1	-0.49%
COc1ccc(COCC(O)CN2CCC(CN3C(=O)c4cccc5cccc(c45)C3=O)CC2)cc1OC.Cl (stereo not shown)	-20.2%
Cc1ccc(-c2nnc(N3CCN(C(=O)c4ccco4)CC3)c3ccccc23)cc1	-18.1%
CCN(CC)C(=O)CSc1nnc(-c2cccc(OC)c2)o1	6.02%
CCCC(=O)Nc1ccc(NC(=O)c2ccco2)cn1	10.2%
COC(=O)c1c(C)noc1-c1ccc(Cl)cc1	4.17%
CCc1ccccc1NC(=S)N(CCN(C)C)C(C)c1cccnc1 (stereo not shown)	9.21%
CN(C)CCn1c2c(c(SCC(=O)Nc3ccc4c(c3)OCCO4)nc1=O)CCC2	6.44%
Cc1cc(N(C)Cc2ccccc2)nc2cc(O)ccc12	-18.9%
CCc1cc(=O)oc2cc(OCc3ccc(C(=O)O)o3)ccc12	22.3%
CCOC(=O)CN1C(=O)C2Cc3ccccc3CN2C1=S (stereo not shown)	-8.2%
COc1ccc(OCC(=O)OCC(=O)c2ccc(OC)c(F)c2)cc1	6.96%
COc1ccc(-c2oc3ccc(N4CCOCC4)cc3c2/C=C/c2ccc(OC)c(OC)c2)cc1	11.1%
Cn1c(=O)[nH]c(=O)c2c1nc(CN1CCOCC1)n2CCc1ccccc1	13%

SMILES	hERG current change (%, negative = inhibition) at 1uM
O=C(NC(=S)NC1CCSC1=O)c1ccc([N+](=O)[O-])cc1 (stereo not shown)	17.5%
O=C(Oc1ccccc1)c1cccc(N2C(=O)CCC2=O)c1	3.68%
COc1ccc(C(=O)CCC(=O)Nc2ccc(N3CCN(C)CC3)cc2)cc1OC	12%
Cc1ccc(-c2csc3ncnc(OCC(=O)NC(=O)NCc4ccco4)c23)cc1	6.78%
O=c1ccc2c(o1)/C(=C/C=C(Cl)Cl)CCC2	12.9%
Cc1ccc(CNn2cnnc2SCc2ccc(F)cc2)cc1	-3.08%
O=C1/C(=C/c2cccnc2)SC(=S)N1C1CCS(=O)(=O)C1 (stereo not shown)	5.29%
CCOC(=O)c1c(-c2ccccc2)csc1NC(=O)CSc1nnc(C)s1	17.2%
CCOc1ccc(NC(=O)CN(C)C(=O)Cn2c(=O)oc3ccccc32)cc1OCC	7.33%
Nc1ccccc1Nc1ccccc1	-9.71%
COc1ccc(OCc2cc(C(=O)N3CCC(c4ccccc4)CC3)no2)c(Cl)c1	-3.22%
Cc1ccc(C(=O)CSc2nnc(-c3ccccc3)n2-c2ccccc2)o1	4.53%
COc1ccccc1N(CC(=O)NCc1ccccc1C)S(=O)(=O)c1ccc(C)cc1	-3.78%
COCCSc1nnc(NC(=O)C2CC(=O)N(c3ccc(Cl)cc3)C2)s1 (stereo not shown)	5.22%
Cc1ccc(C(=O)Nc2ccc(S(=O)(=O)N3CCOCC3)cc2)cc1Br	5.92%
COc1ccc(C)cc1S(=O)(=O)N1CC(C)OC(C)C1 (stereo not shown)	15.2%
CCCN(CCC)CC(O)COc1ccccc1C(=O)Nc1ccccc1.Cl (stereo not shown)	-35.8%
Cc1oc2cc3oc(=O)c(CCC(=O)N4C[C@H]5C[C@@H](C4)c4cccc(=O)n4C5)c(C)c3cc2c1C	-5.27%
COc1cc([C@@H]2[C@H]3CNCC=C3C(C#N)=C(N)C2(C#N)C#N)ccc1OC(C)C	3.66%
COc1ccc(NC(=O)CSc2nc3ccccc3nc2N2CCOCC2)cc1	5.65%
CCc1ccccc1NC(=O)C1(S(=O)(=O)c2ccc(C)cc2)CC1	-17.8%
O=C1c2ccccc2C(=O)N1c1ncc(Cc2ccc(Cl)cc2)s1	17.6%

SMILES	hERG current change (%, negative = inhibition) at 1uM
O=C(CSc1nc(=O)n2ccccc2n1)N1CCCc2ccccc21	7.16%
Cc1cccc(C)c1NC(=O)CSc1nnc(-c2cccnc2)o1	11.8%
Cc1ccsc1/C=N\NC(=O)c1ccc2c(c1)OCO2	3.91%
COc1ccccc1C(=O)NC(=O)COc1cc(Cl)ccc1Cl	10.4%
CC(C)CC(NS(=O)(=O)OCC(Cl)(Cl)Cl)c1ccccc1 (stereo not shown)	6.1%
COCCSc1nc2c(c(=O)[nH]c(=O)n2C)n1CCCc1ccccc1	2.78%
O=C(COc1cccc(C(F)(F)F)c1)Nc1cccnc1	12.4%
CCc1ccccc1NC(=O)CSc1nnc(CCNC(=O)OC(C)(C)C)o1	12.6%
Cn1c(=O)c2c(nc(N3CCN(c4ccccc4)CC3)n2CCCc2ccccc2)n(C)c1=O	14.2%
CC(=O)N[C@H]1C(O)O[C@H](CO)[C@@H](O)[C@@H]1O (stereo partly shown)	10.3%
Cc1ccc(-c2nn(-c3ccc(F)cc3)cc2C(=O)NC2CCC(O)CC2)cc1 (stereo not shown)	16.2%
O=C(O)COc1ccc(-c2nccc(-c3cccs3)n2)cc1	2.67%
O=C(Cc1ccc(Cl)c(Cl)c1)NC1CCCCCC1	10.8%
O=C(NCc1ccccn1)C(=O)C1C(=O)Nc2ccccc21 (stereo not shown)	12.4%
O=C(CSc1nnc(NC(=O)c2ccccc2)s1)NCc1ccco1	13.8%
CCN1C(=O)[C@H]2[C@@H](c3ccc(-c4ccc(F)cc4)c(OC)c3)N3CCC[C@@]3(C(=O)OC)[C@H]2C1=O.O=C(O)C(F)(F)F	18.4%
Cc1nc(NC(=O)c2cccc(Cl)c2)sc1-c1csc(Nc2cccc(Cl)c2)n1	5.12%
O=C1CCN(S(=O)(=O)c2ccc(Cl)cc2)CCN1	5.06%
COC(=O)c1ccc(NC(=O)CCc2c(C)nc3ncnn3c2C)cc1	13.7%
CN(C)CCNC(=O)CNC(=S)N(Cc1ccccc1)Cc1ccccc1F	-1.59%
CCCN(Cc1nnc(-c2ccccc2Cl)o1)C(=O)c1cc([N+](=O)[O-])cc([N+](=O)[O-])c1	-26.8%
CC(C)CNC(=S)N1CCN(C)CC1.O=C(O)C(=O)O	13.6%
